PubChem BioAssay AID624171 (National Center for Advancing Translational Sciences (NCATS), 2012)
In all, about 410,000 compounds went through this assay and about 1,200 (0.29%) were called active. Inconclusive means that the source gave no clear call. Such entries were picked first, then a sample of the others. The call rests on the fitted dose curve; in most records, active means well fitted activation curve with a large enough effect; inconclusive means small, poorly fitted or top-dose-only effect; inactive means flat fitted curve, though single readings scatter. Where the call is inconclusive, the potency comes from a doubtful curve fit.

Assay: qHTS of Nrf2 Activators; further: nearly all actives have a fitted effect of over 65% in size; on activation: % of control where 0% means no effect
Conditions: AREc32 ARE-luciferase reporter (MCF7-derived line), luminescence, 24 h; activation: at 46.1 µM (top of the series)
How it was run: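 Reporter line AREc32 (ARE-Fluc), seeded overnight in OPTI-MEM with 5% FBS; compound pin-transferred, 24 hr at 37 deg C, 5% CO2; luminescent read-out.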
Potency means the concentration at half of the fitted maximal effect; tags describe the fitted curve by direction and shape.

SMILES	Potency	activation
O=C(CCNc1cccc(Cl)c1)c1ccco1	inconclusive: 22.4 µM [activator, single point]	
N#C/C(=C\c1cccc(O)c1)c1nc2ccccc2o1	inconclusive: 15.8 µM [activator, single point]	
Nc1c(C(=O)Nc2ccccc2Br)sc2nc(-c3cccs3)ccc12	inconclusive: 5.01 µM [activator, partial curve]	
CC(=O)N1CCN(C(=O)COC(=O)/C=C/c2ccccc2[N+](=O)[O-])CC1	inconclusive: 12.6 µM [activator, partial curve]	
O=C(c1ccco1)n1c(=S)nc2ccccn21	inconclusive: 2.51 µM [activator, full curve, poor fit]	
O=C(/C=C/c1cccs1)Nc1nccs1	inconclusive: 3.16 µM [activator, full curve]	
NC(=O)c1c(N)sc2c1CCCC2		inactive: 3.1%
Cc1ccc(O)c(C(=O)/C=C/c2ccc3c(c2)OCCCO3)c1	inconclusive: 28.2 µM [activator, single point]	
CCOC(=O)c1ccc(N2C(=O)c3n[nH]c(-c4ccco4)c3C2c2ccc(C(=O)OC)cc2)cc1 (centres undefined)		inactive: -0.126%
CC(=O)Nc1cccc(-c2nc(-c3ccccc3)no2)c1		inactive: 21.4%
COc1cc(C=CC(=O)c2ccccc2)cc(OC)c1OC	inconclusive: 5.01 µM [activator, single point]	
CC(=O)Oc1ccc(/C=C2/Oc3ccccc3C2=O)cc1	inconclusive: 20 µM [activator, single point]	
Cc1ccc2nc(/C=C/c3cccc(F)c3)ccc2c1	inconclusive: 11.2 µM [activator, partial curve, poor fit]	
CN(C)CC(CCC(CN(C)C)C(=O)c1ccccc1)C(=O)c1ccccc1 (centres undefined)	inconclusive: 5.62 µM [activator, single point]	
Cc1ccc(C2C3=C(CC(C)(C)CC3=O)N=C3c4ccccc4C(=O)C32)cc1 (centres undefined)		inactive: -0.138%
CCc1c(C)c2ccc(O)c(CN3CCN(c4cc(Cl)ccc4C)CC3)c2oc1=O		inactive: 0.287%
CCOC(=O)NC(C(Cl)(Cl)Cl)S(=O)(=O)c1ccccc1 (centres undefined)	inconclusive: 25.1 µM [activator, single point]	
CS(=O)(=O)c1ccc(C(=O)OCc2nnc(-c3ccc(Cl)cc3)o2)cc1[N+](=O)[O-]	inconclusive: 22.4 µM [activator, single point]	
Cc1ccc(S(=O)(=O)c2nc(S(C)(=O)=O)sc2N(C)Cc2ccccc2)cc1	inconclusive: 7.94 µM [activator, partial curve]	
Cc1ccc(C)c(C(=O)COc2ncnc3ccccc23)c1	inconclusive: 22.4 µM [activator, single point]	
COc1ccccc1C(=O)Nc1nnc(-c2ccccc2)s1	inconclusive: 11.2 µM [activator, partial curve]	
Fc1ccc(N/N=C2/CC(c3ccccc3)Oc3ccccc32)c(F)c1 (centres undefined)	active: 12.6 µM	
O=c1[nH]c2ccccc2nc1/C=C(\O)c1cccs1	inconclusive: 2.51 µM [activator, full curve]	
C[C@]12C=CC(=O)C=C1CC[C@@H]1[C@@H]2[C@@H](O)C[C@@]2(C)[C@H]1CC[C@]2(O)C(=O)COC(=O)CCC(=O)O		inactive: 0.227%
COc1ccc(OC)c(CNC(=O)C2CCN(c3nc4ccccc4nc3C(F)(F)F)CC2)c1		inactive: 0.309%

SMILES	Potency	activation
Brc1ccc(-c2nnc(-c3cccnc3)c3conc23)cc1	active: 7.08 µM	
O=C(NCCN1CCCCC1)c1cc(COc2c(F)cccc2F)on1		inactive: 1.65%
C=CCSc1nccc(-c2cc(Cl)sc2Cl)n1	active: 10 µM	
COc1ccc(C(=O)/C=C/c2ccc3c(c2)OCCO3)cc1	inconclusive: 25.1 µM [activator, single point]	
Cc1cccn2c(=O)c(C=O)c(Sc3ncccn3)nc12	inconclusive: 15.8 µM [activator, partial curve, poor fit]	
O=c1oc2cc(Br)ccc2n1CSC1=NCCS1	inconclusive: 25.1 µM [activator, single point]	
COc1ccc(OC)c2[nH]c(=O)c(CCNC(=O)c3cc4ccccc4o3)cc12		inactive: -0.74%
Cc1ccc(S(=O)(=O)c2cc3ccccc3oc2=O)cc1	active: 5.62 µM	
NC(=O)c1nc(Nc2ccccc2)sc1NC(=O)c1ccccc1Br	inconclusive: 1.41 µM [activator, full curve, poor fit]	
Cc1nnn(C23C[C@@H]4C[C@@H](CC(C(=O)N5CCN(c6ccccc6)CC5)(C4)C2)C3)n1		inactive: -0.81%
Cc1ccnc(S(=O)(=O)Cc2ccc([N+](=O)[O-])cc2)n1	active: 12.6 µM	
CN(C)CCC(=O)N1c2ccccc2Sc2ccc(C(F)(F)F)cc21	inconclusive: 25.1 µM [activator, single point]	
Cc1cccc(NC2=C(Cl)C(=O)OC2OC(=O)c2ccco2)c1 (centres undefined)	inconclusive: 28.2 µM [activator, single point]	
Cc1ccc(NC(=O)Cn2ncc(Cl)c(Cl)c2=O)cc1S(=O)(=O)N1CCCCC1	inconclusive: 3.55 µM [activator, single point]	
COc1ccc(NC(=O)c2ccco2)c2ccccc12	inconclusive: 12.6 µM [activator, single point]	
COc1ccc(O)c(-c2cc(-c3cccs3)[nH]n2)c1	inconclusive: 1.12 µM [activator, full curve, poor fit]	
COc1cc(C)c(Br)cc1S(=O)(=O)NCc1ccncc1		inactive: -0.0664%
N#CC(C#N)C(c1ccsc1)c1c(-c2ccccc2)[nH][nH]c1=O (centres undefined)	inconclusive: 25.1 µM [activator, single point]	
CC(=O)c1cnc(-c2ccccc2Cl)s1	inconclusive: 35.5 µM [activator, single point]	
O=C(CC1C(=O)N(c2ccc(Cl)cc2)C(=S)N1CCc1ccncc1)Nc1ccc(F)cc1 (centres undefined)	inconclusive: 31.6 µM [activator, single point]	
CN(C(=O)c1cccc(NC(=O)Cc2cccc(NC(=O)C3CCCN(C(=O)C4CCCC4)C3)c2)c1)C1CCC1 (centres undefined)		inactive: 3.61%
O=C(/C=C/Nc1ccccc1Br)c1ccccn1	inconclusive: 3.16 µM [activator, partial curve, poor fit]	
CCOC(=O)C1CCN(C(=O)c2sc3ncnc(N4CCC(C)CC4)c3c2C)CC1		inactive: 0.116%
COc1cc(NC(=O)CCc2c(C)nc3cc(-c4ccccc4)nn3c2C)cc(OC)c1OC		inactive: -1.85%
Cc1cc(NC(=O)c2cc([N+](=O)[O-])ccc2Cl)no1	inconclusive: 25.1 µM [activator, single point]	

SMILES	Potency	activation
Cc1cc(C)n2nc(-c3ccc(F)cc3)cc2n1	inconclusive: 5.62 µM [activator, full curve]	
Cc1ccc(C2=Nc3ccccc3N=C(C(Cl)Cl)C2)cc1	inconclusive: 12.6 µM [activator, single point]	
O=C(/C=C/c1cccs1)c1ccc(N2CCOCC2)cc1		inactive: 0.291%
Cn1ncc([N+](=O)[O-])c1C(=O)Nc1ccc(-c2nc3ccccc3[nH]2)cc1		inactive: 2.11%
COc1cccc(/C=C2\SC(=O)N(CC(=O)NC3C=CS(=O)(=O)C3)C2=O)c1 (centres undefined)	active: 15.8 µM	
O=C(CCCN1CCC(C(=O)c2ccc(F)cc2)CC1)c1ccc(F)cc1		inactive: 0.132%
c1coc(CSc2ncnc3c2oc2ccccc23)c1	active: 4.47 µM	
CSc1nnc2ccc(-c3cccs3)nn12	inconclusive: 22.4 µM [activator, single point]	
c1ccc(Nc2nc(-c3cccs3)cs2)nc1	inconclusive: 3.16 µM [activator, partial curve, poor fit]	
N#C/C(=C(/O)CCl)c1nc2ccccc2[nH]1	inconclusive: 11.2 µM [activator, partial curve, poor fit]	
C[n+]1cc[nH]c1SCC(=O)c1ccc(Cl)cc1	inconclusive: 35.5 µM [activator, single point]	
CC(/C=N/NC(=O)c1ccncc1)=C\c1ccco1	inconclusive: 12.6 µM [activator, partial curve, poor fit]	
COc1ccc(C=C2SC(=O)NC2=O)cc1OC	inconclusive: 35.5 µM [activator, single point]	
COc1ccc(C2=Nn3c(nnc3-c3ccccc3OC)SC2)cc1OCC1CC1		inactive: -0.849%
O=C(/C=C\c1cccs1)c1c(O)ccc2ccc(=O)oc12	active: 11.2 µM	
CCOc1ncccc1C(=O)Nc1cc(S(=O)(=O)N(CC)CC)ccc1N1CCOCC1		inactive: 0.129%
CC(=O)n1cc(N(C(=O)CCl)c2ccccc2)c2ccccc21	inconclusive: 5.01 µM [activator, single point]	
COc1ccc(S(=O)(=O)c2c(C(=O)c3ccc(C)c(C)c3)cnc3ccc(F)cc23)cc1	inconclusive: 12.6 µM [activator, single point]	
O=C(C=Cc1ccco1)c1ccc2ccccc2c1	active: 7.94 µM	
CCOC(=O)c1nnn(-c2nonc2-n2cccc2)c1CCl	inconclusive: 35.5 µM [activator, single point]	
Cc1ccc(C(=O)O/N=C(\N)Cc2cccc3ccccc23)cc1	inconclusive: 35.5 µM [activator, single point]	
CCn1c(C)cc(C(=O)COC(=O)c2ccccc2[N+](=O)[O-])c1C		inactive: -2.9%
CN1CCCCc2c1nc1ccccc1c2N (tested in a mixture with another compound)		inactive: 2.19%
COc1cccc(N2CC(C(=O)N3CCC4(CC3)CC(=O)c3ccccc3O4)CC2=O)c1 (centres undefined)		inactive: 3.5%
